Our source for the binding signal values is publication PMC12820563, “FoxP3 forms a head-to-head dimer in vivo and stabilizes its multimerization on adjacent microsatellites”.

The other results are listed elsewhere or left out.

For this assay, the target named is T1, MBP-FoxP1dN (Mus musculus, UniProt P58462 326-579).
T1 sequence: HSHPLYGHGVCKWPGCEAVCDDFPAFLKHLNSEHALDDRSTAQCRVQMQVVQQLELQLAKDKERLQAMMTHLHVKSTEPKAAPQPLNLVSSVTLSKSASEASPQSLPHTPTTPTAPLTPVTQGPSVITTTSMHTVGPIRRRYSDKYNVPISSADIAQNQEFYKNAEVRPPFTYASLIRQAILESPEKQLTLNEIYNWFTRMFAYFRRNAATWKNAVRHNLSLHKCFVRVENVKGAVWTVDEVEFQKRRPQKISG
As to the kind of experiment: PD-seq (MBP pull-down with sequencing); 20 mM Tris-HCl pH 7.5, 100 mM NaCl, 1.5 mM MgCl2, 0.4 uM protein, 0.1 uM dsDNA library, 30 min, room temperature, amylose pull-down; high values mean tight binding. As to conditions: protein: recombinant; tags: His6-MBP; chain copies: 2; dsDNA, one strand shown. The procedure, abridged:
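His6-MBP-tagged mouse FoxP3 or FoxP1 fragment lacking the N-terminus, expressed in E. coli, was mixed at 0.4 µM with 0.1 µM Klenow-filled double-stranded degenerate DNA library. Incubation was 30 min at room temperature in Tris pH 7.5 buffer with NaCl and MgCl2. Complexes were caught on amylose resin and washed three times; DNA was released with proteinase K, PCR-barcoded and Illumina-sequenced. Binding is reads-per-million enrichment, pull-down over input, with replicates pooled.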
In the case of “GATGATTGTTCTCCCAGCTGATGAATTGCGTTGGTCGAGTAAACAAATTTTCCTAATCTTTCTGTTCAAGCGCCATCTAC”, the binding signal was 1.01 RPM ratio (pull-down/input).

With “GATGATTGTTCTCCCAGCTGATGAATTGCTTCAATCGAGTAAACAAATTTTCCTAATCTTTCTGTTCAAGCGCCATCTAC”, the binding signal was 1.06 RPM ratio (pull-down/input).

For “GATGATTGTTCTCCCAGCTGATGAATTAATACAATCGAGTAAACAAATTTTCCTAATCTTTCTGTTCAAGCGCCATCTAC”, the binding signal is 1.64 RPM ratio (pull-down/input).

Regarding “GATGATTGTTCTCCCAGCTGATGAATTTTAGTCCTCGAGTAAACAAATTTTCCTAATCTTTCTGTTCAAGCGCCATCTAC”, the binding signal was 0.782 RPM ratio (pull-down/input).

Turning to “GATGATTGTTCTCCCAGCTGATGAATTGCGAAATTCGAGTAAACAAATTTTCCTAATCTTTCTGTTCAAGCGCCATCTAC”, the binding signal is 1.16 RPM ratio (pull-down/input).

As for “GATGATTGTTCTCCCAGCTGATGAATTTACCCCTTCGAGTAAACAAATTTTCCTAATCTTTCTGTTCAAGCGCCATCTAC”, the binding signal was 1.06 RPM ratio (pull-down/input).

As to “GATGATTGTTCTCCCAGCTGATGAATTACTTACTTCGAGTAAACAAATTTTCCTAATCTTTCTGTTCAAGCGCCATCTAC”, the binding signal was 1.12 RPM ratio (pull-down/input).

For “GATGATTGTTCTCCCAGCTGATGAATTCCGCCCGTCGAGTAAACAAATTTTCCTAATCTTTCTGTTCAAGCGCCATCTAC”, the binding signal is 0.758 RPM ratio (pull-down/input).

Take “GATGATTGTTCTCCCAGCTGATGAATTGAGGTATTCGAGTAAACAAATTTTCCTAATCTTTCTGTTCAAGCGCCATCTAC”: the binding signal is 1.05 RPM ratio (pull-down/input).

As for “GATGATTGTTCTCCCAGCTGATGAATTAAATAGCTCGAGTAAACAAATTTTCCTAATCTTTCTGTTCAAGCGCCATCTAC”, the binding signal is 0.967 RPM ratio (pull-down/input).

Regarding “GATGATTGTTCTCCCAGCTGATGAATTTTATACTTCGAGTAAACAAATTTTCCTAATCTTTCTGTTCAAGCGCCATCTAC”, the binding signal is 0.942 RPM ratio (pull-down/input).

“GATGATTGTTCTCCCAGCTGATGAATTACGGTGTTCGAGTAAACAAATTTTCCTAATCTTTCTGTTCAAGCGCCATCTAC”: the binding signal is 1.02 RPM ratio (pull-down/input).

As for “GATGATTGTTCTCCCAGCTGATGAATTCTGCTTCTCGAGTAAACAAATTTTCCTAATCTTTCTGTTCAAGCGCCATCTAC”, the binding signal is 0.821 RPM ratio (pull-down/input).

For the sequence “GATGATTGTTCTCCCAGCTGATGAATTGAGCTAGTCGAGTAAACAAATTTTCCTAATCTTTCTGTTCAAGCGCCATCTAC”, the binding signal is 0.79 RPM ratio (pull-down/input).

Take “GATGATTGTTCTCCCAGCTGATGAATTGCGGTAATCGAGTAAACAAATTTTCCTAATCTTTCTGTTCAAGCGCCATCTAC”: the binding signal was 1.45 RPM ratio (pull-down/input).

Consider “GATGATTGTTCTCCCAGCTGATGAATTCGCAAAGTCGAGTAAACAAATTTTCCTAATCTTTCTGTTCAAGCGCCATCTAC”, for which the binding signal was 0.838 RPM ratio (pull-down/input).

As to “GATGATTGTTCTCCCAGCTGATGAATTCCCACCATCGAGTAAACAAATTTTCCTAATCTTTCTGTTCAAGCGCCATCTAC”, the binding signal was 0.867 RPM ratio (pull-down/input).

As for “GATGATTGTTCTCCCAGCTGATGAATTACGGTAATCGAGTAAACAAATTTTCCTAATCTTTCTGTTCAAGCGCCATCTAC”, the binding signal is 1.32 RPM ratio (pull-down/input).

As for “GATGATTGTTCTCCCAGCTGATGAATTCCGTTAGTCGAGTAAACAAATTTTCCTAATCTTTCTGTTCAAGCGCCATCTAC”, the binding signal was 0.826 RPM ratio (pull-down/input).

For “GATGATTGTTCTCCCAGCTGATGAATTGGCAAGATCGAGTAAACAAATTTTCCTAATCTTTCTGTTCAAGCGCCATCTAC”, the binding signal was 0.837 RPM ratio (pull-down/input).

Take “GATGATTGTTCTCCCAGCTGATGAATTGGCGTGGTCGAGTAAACAAATTTTCCTAATCTTTCTGTTCAAGCGCCATCTAC”: the binding signal is 0.863 RPM ratio (pull-down/input).

With “GATGATTGTTCTCCCAGCTGATGAATTGACGTAATCGAGTAAACAAATTTTCCTAATCTTTCTGTTCAAGCGCCATCTAC”, the binding signal was 1.75 RPM ratio (pull-down/input).

Consider “GATGATTGTTCTCCCAGCTGATGAATTAGAATGGTCGAGTAAACAAATTTTCCTAATCTTTCTGTTCAAGCGCCATCTAC”, for which the binding signal is 0.88 RPM ratio (pull-down/input).

With “GATGATTGTTCTCCCAGCTGATGAATTGTTAGCATCGAGTAAACAAATTTTCCTAATCTTTCTGTTCAAGCGCCATCTAC”, the binding signal was 1.65 RPM ratio (pull-down/input).

Consider “GATGATTGTTCTCCCAGCTGATGAATTTGCAGGCTCGAGTAAACAAATTTTCCTAATCTTTCTGTTCAAGCGCCATCTAC”, for which the binding signal was 0.944 RPM ratio (pull-down/input).

Consider “GATGATTGTTCTCCCAGCTGATGAATTATCAAAATCGAGTAAACAAATTTTCCTAATCTTTCTGTTCAAGCGCCATCTAC”, for which the binding signal is 1.22 RPM ratio (pull-down/input).

On to “GATGATTGTTCTCCCAGCTGATGAATTCACATGCTCGAGTAAACAAATTTTCCTAATCTTTCTGTTCAAGCGCCATCTAC”, for which the binding signal is 0.924 RPM ratio (pull-down/input).

Turning to “GATGATTGTTCTCCCAGCTGATGAATTCCTTAATTCGAGTAAACAAATTTTCCTAATCTTTCTGTTCAAGCGCCATCTAC”, the binding signal was 0.935 RPM ratio (pull-down/input).

For the sequence “GATGATTGTTCTCCCAGCTGATGAATTCACCCCCTCGAGTAAACAAATTTTCCTAATCTTTCTGTTCAAGCGCCATCTAC”, the binding signal is 0.801 RPM ratio (pull-down/input).

For “GATGATTGTTCTCCCAGCTGATGAATTTCGTGCCTCGAGTAAACAAATTTTCCTAATCTTTCTGTTCAAGCGCCATCTAC”, the binding signal is 0.913 RPM ratio (pull-down/input).

As to “GATGATTGTTCTCCCAGCTGATGAATTATACCTATCGAGTAAACAAATTTTCCTAATCTTTCTGTTCAAGCGCCATCTAC”, the binding signal was 0.961 RPM ratio (pull-down/input).

As to “GATGATTGTTCTCCCAGCTGATGAATTTCTCCAGTCGAGTAAACAAATTTTCCTAATCTTTCTGTTCAAGCGCCATCTAC”, the binding signal is 0.845 RPM ratio (pull-down/input).

For “GATGATTGTTCTCCCAGCTGATGAATTGATCCTGTCGAGTAAACAAATTTTCCTAATCTTTCTGTTCAAGCGCCATCTAC”, the binding signal was 0.905 RPM ratio (pull-down/input).

As to “GATGATTGTTCTCCCAGCTGATGAATTTGAAGGTTCGAGTAAACAAATTTTCCTAATCTTTCTGTTCAAGCGCCATCTAC”, the binding signal is 0.875 RPM ratio (pull-down/input).

Consider “GATGATTGTTCTCCCAGCTGATGAATTGTTTTCGTCGAGTAAACAAATTTTCCTAATCTTTCTGTTCAAGCGCCATCTAC”, for which the binding signal is 2.02 RPM ratio (pull-down/input).

As for “GATGATTGTTCTCCCAGCTGATGAATTTATTTCTTCGAGTAAACAAATTTTCCTAATCTTTCTGTTCAAGCGCCATCTAC”, the binding signal was 1.29 RPM ratio (pull-down/input).

With “GATGATTGTTCTCCCAGCTGATGAATTCTAAATGTCGAGTAAACAAATTTTCCTAATCTTTCTGTTCAAGCGCCATCTAC”, the binding signal was 0.99 RPM ratio (pull-down/input).

For the sequence “GATGATTGTTCTCCCAGCTGATGAATTTGAGATATCGAGTAAACAAATTTTCCTAATCTTTCTGTTCAAGCGCCATCTAC”, the binding signal is 0.884 RPM ratio (pull-down/input).

“GATGATTGTTCTCCCAGCTGATGAATTCACCTTGTCGAGTAAACAAATTTTCCTAATCTTTCTGTTCAAGCGCCATCTAC”: the binding signal is 0.886 RPM ratio (pull-down/input).

Regarding “GATGATTGTTCTCCCAGCTGATGAATTCACTCACTCGAGTAAACAAATTTTCCTAATCTTTCTGTTCAAGCGCCATCTAC”, the binding signal was 0.88 RPM ratio (pull-down/input).
